Assay results from the supplement of paper PMC4967469.
A lower IC50 marks a more sensitive line; a fit beyond the top or the lowest dose is shown as a bound at that dose. AUC sums up the same curve from the lowest dose to the 256-fold higher top dose; values near 1 show little effect. For part of these data: An inferred top dose comes from the curve model; the source does not state it.

Tests used:
Experiment in all cases: Viability of human cancer cell lines after 72 h of drug (GDSC screen)
[1] = compound: CO[C@H]1C[C@@H]2CC[C@@H](C)[C@@](O)(O2)C(=O)C(=O)N2CCCC[C@H]2C(=O)O[C@H]([C@H](C)C[C@@H]2CC[C@@H](O)[C@H](OC)C2)CC(=O)[C@H](C)/C=C(\C)[C@@H](O)[C@@H](OC)C(=O)[C@H](C)C[C@H](C)/C=C/C=C/C=C/1C [Rapamycin]; conditions: top dose 0.1 µM; top dose inferred
Description: (§1)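 Human cancer cell lines in 384-well plates, medium with 10% serum, drug for 72 h over a 256-fold dose range (nine 2-fold or five 4-fold steps up to the top dose). Adherent lines were fixed and stained with the nucleic acid dye Syto60, suspension lines read with resazurin; signal relative to control wells, capped at 0 and 100%. One two-parameter sigmoid per drug and line, fitted in a mixed model over all curves with the slope shared within a line.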

[2] = compound: Oc1ccc2ccccc2c1SSc1c(O)ccc2ccccc12 [IPA-3]; conditions: top dose 32 µM; top dose inferred
Description: as §1

[3] = compound: CN1CCc2c(c3ccccc3n2Cc2ccc(C(=O)NO)cc2)C1 [Tubastatin A]; conditions: top dose 20 µM
Description: as §1

[4] = compound: COc1cc2c(Oc3ccc(NC(=O)C4(C(=O)Nc5ccc(F)cc5)CC4)cc3F)ccnc2cc1OCCCN1CCOCC1 [XL-880]; conditions: top dose 5.12 µM; top dose inferred
Description: as §1

[5] = compound: CCCC[C@@H](C=O)NC(=O)[C@H](CC(C)C)NC(=O)[C@H](CC(C)C)NC(=O)OCc1ccccc1 [Z-LLNle-CHO]; conditions: top dose 2.56 µM; top dose inferred
Description: as §1

[6] = compound: Cn1nnc2c(C(N)=O)ncn2c1=O [Temozolomide]; conditions: top dose 30 µM
Description: as §1

[7] = compound: O=C(NOCC1CC1)c1ccc(F)c(F)c1Nc1ccc(I)cc1Cl [CI-1040]; conditions: top dose 10 µM; top dose inferred
Description: as §1

[8] = compound: CN(C)C/C=C/C(=O)Nc1ccc(C(=O)Nc2cccc(Nc3nccc(-c4cccnc4)n3)c2)cc1 [ZG-10]; conditions: top dose 10 µM; top dose inferred
Description: as §1

[9] = compound: CCC(=O)N1CCN(c2ccc(-n3c(=O)ccc4cnc5ccc(-c6cnc7ccccc7c6)cc5c43)cc2C(F)(F)F)CC1 [JW-7-52-1]; conditions: top dose 1.2 µM; top dose inferred
Description: as §1

Row | Cell Line | AUC [1] | IC50 [1] [µM] | AUC [2] | IC50 [2] [µM] | AUC [3] | IC50 [3] [µM] | AUC [4] | IC50 [4] [µM] | AUC [5] | IC50 [5] [µM] | AUC [6] | IC50 [6] [µM] | AUC [7] | IC50 [7] [µM] | AUC [8] | IC50 [8] [µM] | AUC [9] | IC50 [9] [µM]
1 | UACC-812 (breast, adherent) | 0.9 | > 0.1 | 0.991 | > 32 | 0.874 | 18.3 | 0.882 | > 5.12 |  |  |  |  |  |  |  |  |  | 
2 | VA-ES-BJ (soft tissue, adherent) | 0.233 | 0.000998 | 0.863 | 30.4 | 0.973 | > 20 | 0.682 | 1.06 | 0.725 | 0.728 | 0.98 | > 30 | 0.838 | 7.31 | 0.72 | 2.74 |  | 
3 | OS-RC-2 (kidney, adherent) |  |  | 0.935 | > 32 | 0.701 | 6 | 0.608 | 0.722 | 0.859 | > 2.56 | 0.975 | > 30 | 0.782 | 6.31 | 0.771 | 5.66 | 0.286 | 0.0139
4 | SF126 (glioma, adherent) |  |  | 0.842 | 24.2 | 0.981 | > 20 | 0.613 | 0.667 | 0.815 | 1.5 | 0.979 | > 30 | 0.807 | 5.45 | 0.782 | 4.43 | 0.411 | 0.0422
5 | SW684 (fibrosarcoma, adherent) |  |  | 0.846 | > 32 | 0.982 | > 20 | 0.983 | > 5.12 | 0.981 | > 2.56 | 0.98 | > 30 | 0.964 | > 10 | 0.846 | > 10 | 0.925 | > 1.2
6 | TE-441-T (rhabdomyosarcoma, adherent) | 0.953 | > 0.1 | 0.775 | 12.1 |  |  | 0.76 | 1.74 | 0.954 | > 2.56 |  |  |  |  |  |  | 0.827 | 0.697
7 | KYM-1 (rhabdomyosarcoma, adherent) | 0.202 | 0.000979 | 0.773 | 10.7 | 0.989 | > 20 | 0.889 | 4.36 |  |  | 0.987 | > 30 | 0.901 | 9.7 |  |  |  | 
8 | HCE-4 (oesophagus, adherent) | 0.912 | > 0.1 | 0.783 | 11.5 | 0.992 | > 20 | 0.97 | > 5.12 | 0.73 | 0.642 |  |  |  |  |  |  |  | 
9 | SNB75 (glioma, adherent) |  |  | 0.976 | > 32 | 0.953 | > 20 | 0.75 | 2.41 | 0.835 | > 2.56 | 0.976 | > 30 | 0.893 | > 10 | 0.676 | 2.45 | 0.413 | 0.0387
